# In PubChem BioAssay AID652104 (National Center for Advancing Translational Sciences (NCATS), 2013):
# “And” between values parts separate entries of the source, which are not always exact repeats. Identical values can stand only once. Screen size: about 410,000 compounds; about 7,200 (1.8%) were called active. The inconclusive results got no clear call from the source; some entries with a clear call stand among them for comparison. The call rests on the fitted dose curve; in most records, active means well fitted activation curve with a large enough effect; inconclusive means small, poorly fitted or top-dose-only effect, or another doubt; inactive means no such curve, though single readings can be large or run the other way. Where the call is inconclusive, the potency comes from a doubtful curve fit.
# Assay: qHTS of TDP-43 Inhibitors; further: nearly all actives have a fitted effect of over 50% in size; on growth rescue (activation): % of control where 0% means no effect
# Conditions: TDP-43 expressing yeast growth rescue, BacTiter-Glo, 24 h; growth rescue (activation): at 46.1 µM (top of the series) unless noted
# Summary of the method: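 Readout is BacTiter-Glo luminescence of cell growth, so inhibitors register as activators. TDP-43-expressing yeast at OD600=0.02 in galactose medium, after raffinose pregrowth to mid-log, were incubated with compound for 24 hr at 30 deg C.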
# Potency means the concentration at half of the fitted maximal effect; tags describe the fitted curve by direction and shape.
Compound,Potency,growth rescue (activation)
CC(=O)c1ccc(NC(=O)COC(=O)CC2CC3CCC2C3)cc1 (stereo unspecified),"inconclusive: 15.8 µM [activator, single point]",–
CC(C)(C)c1ccc(OCC(=O)NNC(=S)NC(=O)c2ccco2)c(Br)c1,"inconclusive: 2.82 µM [activator, full curve, poor fit]",–
CC(=O)c1cccc(NC(=S)N2CCC(Cc3ccccc3)CC2)c1,"inconclusive: 31.6 µM [activator, single point]",–
COc1ccc(-n2c(-c3ccccc3)nc(=S)c3c2CCCC3)cc1,"inconclusive: 5.01 µM [activator, partial curve, poor fit]",–
S=C1NC2(CCCCC2)Cc2ccccc21,"inconclusive: 15.8 µM [activator, single point]",–
Cc1ccc(S(=O)(=O)c2c(Nc3ccc(C)c(C)c3)sc(C(=O)c3ccc4c(c3)OCO4)c2N)cc1,inactive,–
O=C(COC(=O)/C=C/c1cccc(Br)c1)NCc1ccco1,"inconclusive: 35.5 µM [activator, single point]",–
CCN(C(=O)Cc1c(C(=O)O)n(CC)c2ccccc12)c1ccccc1C,active: 25.1 µM,–
COc1ccc(-c2nc3ccc(C)cc3c(=O)o2)cc1OC,"inconclusive: 3.55 µM [activator, partial curve]",–
Cc1ccc(Sc2nc([N+](=O)[O-])nn2C)cc1,"inconclusive: 14.1 µM [activator, partial curve]",–
CCOC(=O)C1CCN(c2ncnc3c2cnn3-c2ccc(OC)cc2)CC1,"inconclusive: 15.8 µM [activator, single point]",–
CCCOc1ccc(C2=NC(c3ccncc3)=Nc3ccc(C)cc3N2)cc1,"inconclusive: 39.8 µM [activator, partial curve, poor fit]",–
O=C(CCCSc1nc2ccccc2s1)Nc1nccs1,"inconclusive: 7.08 µM [activator, full curve]",–
Cc1cc(C(=O)CN2C(=O)c3ccccc3S2(=O)=O)c(C)n1-c1ccccc1,"inconclusive: 14.1 µM [activator, single point]",–
Cc1csc2nc(-c3ccc(NS(=O)(=O)c4cccc(F)c4)cc3)cn12,"inconclusive: 10 µM [activator, partial curve]",–
COc1ccc(OC)c(NC(=O)N2CC(C)Oc3ccc(C)cc32)c1 (stereo unspecified),"inconclusive: 22.4 µM [activator, single point]",–
COc1ccc(C(=O)Nc2nc(-c3nnn(-c4ccc(F)cc4F)c3C)ns2)cc1,inactive,–
Cc1cccc2c(=O)c(-c3ccc(Cl)cc3)c(NC(=O)c3ccco3)oc12,"inconclusive: 3.16 µM [activator, partial curve]",–
O=C(Nc1nc(-c2ccc(Cl)cc2)cs1)C1CCCO1 (stereo unspecified),"inconclusive: 14.1 µM [activator, partial curve]",–
C[C@H](NC(=O)c1nc[nH]c1C(=O)N(C)Cc1ccccc1)c1ccccc1,"inconclusive: 6.31 µM [activator, single point]",–
CCc1ccc(NC(=O)CCS(=O)(=O)c2ccc(Br)cc2)cc1,"inconclusive: 15.8 µM [activator, partial curve]",–

Compound,Potency,growth rescue (activation)
O=C(CN1CCN(Cc2ccc(F)cc2Cl)C1=O)NCCc1ccc(Cl)cc1,"inconclusive: 10 µM [activator, partial curve]",–
Cc1nc(S/C(=C/c2ccc(-c3ccc(C(=O)O)cc3)o2)C(=O)O)n[nH]1,"inconclusive: 8.91 µM [activator, partial curve]",–
CC(=O)Nc1ccc(SCC(=O)N(CCC#N)c2cc(C)cc(C)c2)cc1,inactive,–
CCOC(=O)CSc1nc2c(c(=O)[nH]1)C(C)(CC)Cc1ccccc1-2 (stereo unspecified),"inconclusive: 12.6 µM [activator, partial curve]",–
COc1ccc2c(c1)-c1ccccc1S(=O)(=O)N2C,active: 11.2 µM,–
Cc1ccc2c(c1)=N/C(=N\c1[nH]c(O)c3ccccc13)N=2,–,inconclusive: -82.8% [activator]
COc1ccc(-c2ccc(-c3nc4ccc(C)cn4c3NC3CCCCC3)cc2OC)cc1,"inconclusive: 35.5 µM [activator, single point] and inconclusive: 14.1 µM [activator, partial curve]",–
CN1CCN(CCCNC(=O)c2ccc(/C=C3/Sc4ccccc4N(Cc4cccc(Cl)c4)C3=O)cc2)CC1,"inconclusive: 22.4 µM [activator, partial curve]",–
CCOC(=O)c1ccc(Nc2ccc(C(C)=O)cc2)cc1,"inconclusive: 7.08 µM [activator, partial curve]",–
COC(=O)c1cc(S(=O)(=O)N2CCN(c3cc(Cl)ccc3C)CC2)c[nH]1,"inconclusive: 31.6 µM [activator, single point]",–
CCCn1nc(C(=O)NC2CCCc3ccccc32)c2ccccc2c1=O (stereo unspecified),"inconclusive: 22.4 µM [activator, single point]",–
Cc1ccc(CNC(=O)Cn2cc3c(n2)-c2c(oc(C(=O)N4CCOCC4)c2C)CC3)cc1,"inconclusive: 1.26 µM [activator, partial curve]",–
CS(=O)(=O)CCC(C(=O)OCc1ccc(Cl)cc1)N1C(=O)c2ccccc2C1=O (stereo unspecified),inactive,–
CCc1nnc(NC(=O)CSc2nc(-c3ccc(OC)cc3)ns2)s1,inactive,–
NC(=O)c1ccsc1NC(=O)C1CCCCC1,"inconclusive: 35.5 µM [activator, single point]",–
CC1CC(C)CN(C(=O)COC(=O)c2cccc(S(=O)(=O)N(C)c3ccccc3)c2)C1 (stereo unspecified),"inconclusive: 39.8 µM [activator, partial curve, poor fit]",–
O=C(NCCc1ccc(Cl)cc1)c1ccc(CSCc2ccccc2Cl)o1,inactive,–
O=C(Nc1ccn(Cc2ccccc2)n1)c1ccc2c(c1)OCO2,"inconclusive: 2.51 µM [activator, full curve]",–
CC(C)N(Cc1nc(-c2ccccc2)no1)C(=O)COc1ccccc1,"inconclusive: 6.31 µM [activator, partial curve]",–
Cc1n[nH]c(C)c1NC(=O)CN1CCN(S(=O)(=O)c2ccc(C(F)(F)F)cc2)CC1,inactive,–
